Laboratory results from patent US8633212B2, “Inhibitors of beta-secretase” (Vitae Pharmaceuticals, Inc., priority 2009, dated 2014).

Biological target: ectodomain of BACE (aa 1-454) fused to a myc-his tag, secreted from HEK293/BACEect. cells (Homo sapiens (Human), UniProt P56817)
[1] = footnote b: protocols described in Example 435

Structure (SMILES) | pIC50 [1] | pIC50
CO[C@H]1CC[C@]2(CC1)Cc1ccc(OCc3ccccc3)cc1C21N=C(N)N(C)O1 (stereo partly shown) [Compound 516] | 6.05 | –
COC1CCC2(CC1)Cc1ccc(Br)cc1C21CON(C)C(N)=N1 (stereo not shown) [Compound 435] | 5.63 | –
CO[C@H]1CC[C@]2(CC1)Cc1ccc(-c3ncc(C)s3)cc1C21N=C(N)N(CC(F)(F)F)C1=O (stereo partly shown) [Compound 532] | 6.49 | –
COCCO[C@H]1CC[C@]2(CC1)Cc1ccc(Cl)cc1C21N=C(N)N(C)C1=O (stereo partly shown) [Compound 538] | 6.21 | –
CO[C@H]1CC[C@]2(CC1)Cc1ccc(C(C)C)cc1C21N=C(N)N(C)O1 (stereo partly shown) [Compound 497] | 6.84 | –
CO[C@H]1CC[C@]2(CC1)Cc1ccc(N3CCCC3=O)cc1C21N=C(N)N(C)C1=O (stereo partly shown) [Compound 549] | 6.96 | –
COc1cccc(-c2ccc3c(c2)C2(N=C(N)N(C)C2=O)[C@]2(CC[C@H](OC(C)C)CC2)C3)c1 (stereo partly shown) [Compound 510] | 7.21 | –
CC#Cc1cncc(-c2ccc3c(c2)C2(N=C(N)N(C(C)C)C2=O)C2(CCC(OC)CC2)C3)c1 (stereo not shown) [Compound 166] | 7.94 | –
NC1=NC2(CS1)c1cc(Br)ccc1CC21CCC(O)CC1 (stereo not shown) [Compound 443] | 5.21 | –
CN1C(=O)[C@@]2(N=C1N)c1ccccc1CC21CCc2ccccc2CC1 [Compound 562] | 5.09 | –
COCCN1C(=O)C2(N=C1N)c1cc(OC(F)F)ccc1C[C@]21CC[C@@H](OC)CC1 (stereo partly shown) [Compound 534] | 6.89 | –
COC1CCC2(CC1)Cc1ccc(OCC3CC3)cc1[C@]21N=C(N)N(C(C)C)C1=O (stereo partly shown) [Compound 174] | 7.63 | –
COc1cccc(-c2ccc3c(c2)C2(N=C(N)N(C)O2)[C@]2(CC[C@](C)(O)CC2)C3)c1 (stereo partly shown) [Compound 517] | 6.06 | –
COC1CCC2(CC1)Cc1ccc(CCC3CC3)cc1C21N=C(N)N(Cc2cncs2)C1=O (stereo not shown) [Compound 386] | 8.11 | –
COC1CCC2(CC1)Cc1ccc(N3CCCC3)cc1C21N=C(N)N(C)C1=O (stereo not shown) [Compound 232] | 6.84 | –
CN1C(=O)C2(N=C1N)c1cc(Br)ccc1CC21CNC1 (stereo not shown) [Compound 570] | 4.87 | –
CO[C@H]1CC[C@]2(CC1)Cc1ccc(-c3ccc(C#N)s3)cc1C21N=C(N)N(C(C)C)C1=O (stereo partly shown) [Compound 568] | 6.26 | –
CO[C@H]1CC[C@]2(CC1)Cc1ccc(Cl)cc1C21N=C(N)N(C)O1 (stereo partly shown) [Compound 546] | 6.67 | –
CO[C@H]1CC[C@]2(CC1)Cc1ccc(Oc3ccccc3)cc1[C@@]21N=C(N)N(C)C1=O [Compound 577] | 6.61 | –
CO[C@H]1CC[C@]2(CC1)Cc1ccc(Br)cc1[C@@]21N=C(N)N([C@@H](C)CO)C1=O [Compound 587] | 4.87 | –
CO[C@H]1CC[C@]2(CC1)Cc1ccc(CCc3ccccc3)cc1C21N=C(N)N(C)O1 (stereo partly shown) [Compound 492] | 6.39 | –
CN1OC2(N=C1N)c1cc(-c3cccc(C#N)c3)ccc1CC21CCC(Cc2ccccc2)CC1 (stereo not shown) [Compound 120] | 5.46 | –

Structure (SMILES) | pIC50 [1] | pIC50
COCCOc1ccc2c(c1)[C@@]1(N=C(N)N(C)C1=O)C1(CCC(OC)CC1)C2 (stereo partly shown) [Compound 483] | 6.02 | –
COCCOc1ccc2c(c1)C1(N=C(N)N(C3CCC3)C1=O)[C@]1(CC[C@H](OC)CC1)C2 (stereo partly shown) [Compound 571] | 6.95 | –
COCCOc1ccc2c(c1)[C@]1(N=C(N)N(C)C1=O)C1(CCc3ccccc3CC1)C2 [Compound 407] | 5.67 | –
COC1CCC2(CC1)Cc1ccc(OCCN(C)C)cc1C21N=C(N)N(C)C1=O (stereo not shown) [Compound 235] | 6.43 | –
COC1CCC2(CC1)Cc1ccc(CCC3CC3)cc1[C@]21N=C(N)N(C[C@H]2CCO2)C1=O (stereo partly shown) [Compound 379] | 6.05 | –
CN1C(=O)C2(N=C1N)c1cc(Br)ccc1O[C@]21CC[C@@H](OC(F)F)CC1 (stereo partly shown) [Compound 584] | 6.37 | –
CO[C@H]1CC[C@]2(CC1)Cc1ccc(C(=O)O)cc1C21N=C(N)N(Cc2ccccc2)C1=O (stereo partly shown) [Compound 391] | 6.25 | –
CN1C(=O)[C@]2(N=C1N)c1ccccc1CC21CCc2ccccc2CC1 [Compound 563] | 6.77 | –
COCCN1C(=O)C2(N=C1N)c1cc(C3CC3)ccc1C[C@]21CC[C@@H](OC)CC1 (stereo partly shown) [Compound 536] | 6.76 | –
COC1CCC2(CC1)Cc1ccc(C#CC3CC3)cc1[C@@]21N=C(N)N(C[C@@H]2CCCO2)C1=O (stereo partly shown) [Compound 336] | 6.68 | –
COC1CCC2(CC1)Cc1ccc(CCC3CC3)cc1C21N=C(N)N(CC2CCO2)C1=O (stereo not shown) [Compound 377] | 7.78 | –
CO[C@H]1CC[C@]2(CC1)Cc1ccc(Cl)cc1C21N=C(N)N(C(C)C)C1=O (stereo partly shown) [Compound 531] | 6.77 | –
COC1CCC2(CC1)Cc1ccc(CCC3CC3)cc1C21N=C(N)N([C@H](C)c2ccccc2)C1=O (stereo partly shown) [Compound 362] | – | 7.09
CO[C@H]1CC[C@]2(CC1)Cc1ccc(CC(C)(C)C)cc1C21N=C(N)N(C(C)C)C1=O (stereo partly shown) [Compound 509] | 6.57 | –
CO[C@H]1CC[C@]2(CC1)Cc1ccc(Br)cc1[C@@]21N=C(N)N(Cc2cnccn2)C1=O [Compound 586] | 5.67 | –
COC1CCC2(CC1)Cc1ccc(C(C)C(F)(F)F)cc1C21N=C(N)N(C)C1=O (stereo not shown) [Compound 263] | 6.15 | –
CO[C@H]1CC[C@]2(CC1)Cc1ccc(-n3ccccc3=O)cc1C21N=C(N)N(C)C1=O (stereo partly shown) [Compound 582] | 6.34 | –
COC1CCC2(CC1)Cc1ccc(Br)cc1C21CSC(N)=N1 (stereo not shown) [Compound 444] | 5.84 | –
CN1C(=O)C2(N=C1N)c1cc(Br)ccc1CC21CCC(Cc2ccccc2)CC1 (stereo not shown) [Compound 265] | 6.20 | –
CO[C@H]1CC[C@]2(CC1)Cc1ccc(Br)cc1[C@@]21N=C(N)N(CC(C)(C)O)C1=O [Compound 585] | 5.37 | –
COCC(C)N1C(=O)[C@]2(N=C1N)c1cc(CCC3CC3)ccc1CC21CCC(OC)CC1 (stereo partly shown) [Compound 350] | 6.32 | –
CO[C@H]1CC[C@]2(CC1)Cc1ccc(CCc3ccccc3)cc1C21N=C(N)N(C(C)C)C1=O (stereo partly shown) [Compound 496] | 6.73 | –

More lines, main results first:

pIC50 [1] | Structure (SMILES) | pIC50
7.93 | CO[C@H]1CC[C@]2(CC1)Cc1ccc(OCC(C)C)cc1C21N=C(N)N(CC(F)(F)F)C1=O (stereo partly shown) [Compound 561] | –
7.24 | CO[C@H]1CC[C@]2(CC1)Cc1ccc(C#N)cc1C21N=C(N)N(CCc2nccs2)C1=O (stereo partly shown) [Compound 573] | –
8.05 | COCCN1C(=O)C2(N=C1N)c1cc(CCC(C)C)ccc1C[C@]21CC[C@@H](OC)CC1 (stereo partly shown) [Compound 513] | –
7.28 | CO[C@H]1CC[C@]2(CC1)Cc1cc(F)c(OCC(F)(F)F)cc1C21N=C(N)N(C)O1 (stereo partly shown) [Compound 518] | –
7.58 | CO[C@H]1CC[C@]2(CC1)Cc1ccc(C#N)cc1C21N=C(N)N(Cc2ccccc2)C1=O (stereo partly shown) [Compound 390] | –
7.35 | CO[C@H]1CC[C@]2(CC1)Cc1ccc(CC3CCCCC3)cc1C21N=C(N)N(C(C)C)C1=O (stereo partly shown) [Compound 495] | –
7.07 | CCO[C@H]1CC[C@]2(CC1)Cc1ccc(-c3cccc(OC)c3)cc1C21N=C(N)N(C)O1 (stereo partly shown) [Compound 597] | –
8.66 | COC1CCC2(CC1)Cc1ccc(C#CC3CC3)cc1[C@]21N=C(N)N(C[C@H]2CCCO2)C1=O (stereo partly shown) [Compound 335] | –
7.12 | CO[C@H]1CC[C@]2(CC1)Cc1ccc(CC3CCCCC3)cc1C21N=C(N)N(C)O1 (stereo partly shown) [Compound 488] | –
8.05 | CO[C@H]1CC[C@]2(CC1)Cc1ccc(CCC(C)C)cc1C21N=C(N)N(CC(F)F)C1=O (stereo partly shown) [Compound 511] | –
8.15 | CO[C@H]1CC[C@]2(CC1)Cc1ccc(OCC3CC3)cc1[C@]21N=C(N)N(CC(F)(F)F)C1=O [Compound 559] | –
7.06 | COCCOc1ccc2c(c1)C1(N=C(N)N(C(C)C)C1=O)C1(CCC(OC)CC1)C2 (stereo not shown) [Compound 486] | –
7.37 | CCCCN1C(=O)C2(N=C1N)c1cc(C#N)ccc1CC21CCC(OC)CC1 (stereo not shown) [Compound 482] | –
8.10 | CCN1C(=O)C2(N=C1N)c1cc(CCC(C)C)ccc1C[C@]21CC[C@@H](OC)CC1 (stereo partly shown) [Compound 514] | –
7.00 | CO[C@H]1CC[C@]2(CC1)Cc1ccc(Oc3cccc(Cl)c3)cc1C21N=C(N)N(C)O1 (stereo partly shown) [Compound 594] | –
8.28 | CN1C(=O)C2(N=C1N)c1cc(-c3cccc(C#N)c3)ccc1CC21CCc2ccccc2CC1 (stereo not shown) [Compound 29] | –

pIC50 [1] | Structure (SMILES) | pIC50
8.02 | COC1CCC2(CC1)Cc1ccc(OC(F)(F)C(F)F)cc1[C@@]21N=C(N)N(C)C1=O (stereo partly shown) [Compound 241] | –
7.11 | CO[C@H]1CC[C@]2(CC1)Cc1ccc(CCC(C)C)cc1C21N=C(N)N(CC(F)(F)F)C1=O (stereo partly shown) [Compound 512] | –
7.27 | CCCc1ccc2c(c1)C1(N=C(N)N(C(C)C)C1=O)[C@]1(CC[C@H](OC)CC1)C2 (stereo partly shown) [Compound 494] | –
8.30 | CO[C@H]1CC[C@]2(CC1)Cc1ccc(C#CC3CC3)cc1C21N=C(N)N(CC(=O)O)C1=O (stereo partly shown) [Compound 524] | –
6.97 | CO[C@H]1CC[C@]2(CC1)Cc1ccc(CN3CCC(F)(F)C3)cc1C21N=C(N)N(C)C1=O (stereo partly shown) [Compound 576] | –
7.53 | COC1CCC2(CC1)Cc1ccc(OC3CC3)cc1C21N=C(N)N(C)C1=O (stereo not shown) [Compound 239] | –
8.15 | COC1CCC2(CC1)Cc1ccc(OCC(C)C)cc1C21N=C(N)N(CCF)C1=O (stereo not shown) [Compound 572] | –
7.41 | CCCCCc1ccc2c(c1)C1(N=C(N)N(C(C)C)C1=O)[C@]1(CC[C@H](OC)CC1)C2 (stereo partly shown) [Compound 503] | –
7.32 | COC1CCC2(CC1)Cc1ccc(Oc3ccccc3)cc1C21N=C(N)N(C)C1=O (stereo not shown) [Compound 248] | –
7.96 | CO[C@H]1CC[C@]2(CC1)Cc1ccc(C#CC3CC3)cc1C21N=C(N)N(CC(N)=O)C1=O (stereo partly shown) [Compound 542] | –
7.47 | CO[C@H]1CC[C@]2(CC1)Cc1ccc(OCC(F)(F)F)cc1C21N=C(N)N(CC(F)(F)F)C1=O (stereo partly shown) [Compound 553] | –
8.03 | CO[C@H]1CC[C@]2(CC1)Cc1ccc(C#CC3CC3)cc1C21N=C(N)N(Cc2nnc(C)s2)C1=O (stereo partly shown) [Compound 545] | –
7.97 | COCCOc1ccc2c(c1)C1(N=C(N)N(C)C1=O)C1(CCC(OC)CC1)C2 (stereo not shown) [Compound 237] | –
8.41 | CO[C@H]1CC[C@]2(CC1)Cc1ccc(Oc3ccccc3)cc1[C@]21N=C(N)N(C)C1=O [Compound 578] | –
8.19 | COC1CCC2(CC1)Cc1ccc(OC(F)(F)C(F)F)cc1[C@]21N=C(N)N(C)C1=O (stereo partly shown) [Compound 243] | –
7.06 | COCCN1C(=O)C2(N=C1N)c1cc(Cl)ccc1C[C@]21CC[C@@H](OC)CC1 (stereo partly shown) [Compound 537] | –

pIC50: −log10 of the molar value. Like-named read-outs stand apart in the source and are kept apart here.
